Results from the supplement of paper PMC6609913.
Where a name gives a salt, the structure may show the parent alone. ± gives the standard deviation of the averaged measurements. In all, about 1,300 compounds were measured (“normalised cell viability”: median about 1, lowest 2% from about 0.15 on). Some of the results follow.

Tested on: V-C8 + BRCA2 (BRCA2-proficient hamster cells)
Experiment: normalised cell viability (fraction of plate median); higher = more viable cells (less toxic)
Details: 5 µM
In short: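 In two screens, library drugs at 5 μM were given for 3 days (screen 1) or 6 days (screen 2) to hamster V-C8 cells without BRCA2 and V-C8 cells with BRCA2 restored, seeded 24 h earlier in 96-well plates. A resazurin assay gave the cell viability readout, expressed as modified robust per cent of sample against the plate median, with triplicate wells averaged.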

SMILES	normalised cell viability (treatment time: 3 days)	normalised cell viability (treatment time: 6 days)
O=c1[nH]c(=O)n([C@H]2C[C@H](O)[C@@H](CO)O2)cc1I [Idoxuridine]	0.403 ± 0.013	0.392 ± 0.0092
Cc1cccc(N(C)C(=S)Oc2ccc3ccccc3c2)c1 [Tolnaftate]	1.02 ± 0.027	1.04 ± 0.044
CC1(C)O[C@@H]2C[C@H]3[C@@H]4C[C@H](F)C5=CC(=O)CC[C@]5(C)[C@H]4[C@@H](O)C[C@]3(C)[C@]2(C(=O)CO)O1 [Flurandrenolide]	1.01 ± 0.13	1.07 ± 0.055
NNC(=O)c1ccncc1 [Isoniazid]	1.01 ± 0.062	1.05 ± 0.043
CCC[C@@H]1C[C@@H](C(=O)N[C@@H]([C@H]2O[C@H](SC)[C@H](O)[C@@H](O)[C@H]2O)[C@@H](C)O)N(C)C1 [Lincomycin hydrochloride]	1.01 ± 0.031	1.11 ± 0.046
CN1CCCN=C1/C=C/c1cccs1 [Pyrantel tartrate]	1.04 ± 0.05	1.03 ± 0.026
CCN(CC)CCN[C@@H](C(=O)OCCC(C)C)c1ccccc1 [Camylofine chlorhydrate]	0.957 ± 0.014	0.998 ± 0.096
O=C(Nc1ccc([N+](=O)[O-])cc1Cl)c1cc(Cl)ccc1O [Niclosamide]	0.139 ± 0.0082	0.127 ± 0.0065
CCOc1ccc(Cc2nccc3cc(OCC)c(OCC)cc23)cc1OCC [Ethaverine hydrochloride]	0.834 ± 0.036	0.445 ± 0.019
CC12CC3CC(C)(C1)CC(N)(C3)C2 [Memantine Hydrochloride]	0.955 ± 0.035	1.03 ± 0.022
O=C1c2cccc(O)c2C(=O)c2c(O)cccc21 [1,8-Dihydroxyanthraquinone]	0.853 ± 0.051	0.914 ± 0.076
CC(C)NNC(=O)c1ccncc1 [Iproniazide phosphate]	0.962 ± 0.016	0.974 ± 0.028
CCN(CC)CCNC(=O)c1cc(Br)c(N)cc1OC [Bromopride]	0.948 ± 0.064	0.999 ± 0.061
CCCCC(=O)N(Cc1ccc(-c2ccccc2-c2nnn[nH]2)cc1)[C@H](C(=O)O)C(C)C [Valsartan]	0.988 ± 0.14	0.954 ± 0.083
OC(CCN1CCCCC1)(c1ccccc1)c1ccccc1 [Pridinol methanesulfonate salt]	0.942 ± 0.06	0.871 ± 0.038
CCOC(=O)C1=C(C)NC(C)=C(C(=O)OC)C1c1cccc(Cl)c1Cl (configuration not stated) [Felodipine]	0.718 ± 0.052	0.533 ± 0.066
C[C@H](CCC(=O)O)[C@H]1CC[C@H]2[C@@H]3C(=O)C[C@@H]4CC(=O)CC[C@]4(C)[C@H]3CC(=O)[C@]12C [Dehydrocholic acid]	1.15 ± 0.047	1.07 ± 0.068
O=C1c2c(O)ccc(O)c2C(=O)c2c(NCCNCCO)ccc(NCCNCCO)c21 [Mitoxantrone dihydrochloride]	0.123 ± 0.0098	0.124 ± 0.0098
O=C(NC(Cc1cc(=O)[nH]c2ccccc12)C(=O)O)c1ccc(Cl)cc1 (configuration not stated) [Rebamipide]	1.25 ± 0.29	1.06 ± 0.047
CC(C)(C)NC[C@H](O)COc1cccc2c1CCCC2=O [(-) -Levobunolol hydrochloride]	1.04 ± 0.021	1.011 ± 0.0087
C[N+](C)(C)CCOC(N)=O [Carbachol]	0.953 ± 0.043	1.01 ± 0.036
Nc1ncn(C2OC(CO)C(O)C2O)c(=O)n1 (configuration not stated) [Azacytidine-5]	0.736 ± 0.015	0.97 ± 0.014
O=C(O)CCC(=O)c1ccc(-c2ccccc2)cc1 [Fenbufen]	1.03 ± 0.04	1.03 ± 0.041
CN1CCN2c3ccccc3Cc3ccccc3C2C1 (configuration not stated) [Mianserine hydrochloride]	1.08 ± 0.089	1.14 ± 0.014

SMILES	normalised cell viability (treatment time: 3 days)	normalised cell viability (treatment time: 6 days)
N[C@@H](Cc1ccc(O)c(O)c1)C(=O)O [Levodopa]	0.908 ± 0.037	0.931 ± 0.051
CC(=O)Oc1ccc(C(c2ccc(OC(C)=O)cc2)c2ccccn2)cc1 [Bisacodyl]	1.07 ± 0.012	1 ± 0.1
CCCc1nn(C)c2c(=O)[nH]c(-c3cc(S(=O)(=O)N4CCN(C)CC4)ccc3OCC)nc12 [Sildenafil]	1.01 ± 0.07	1.09 ± 0.048
CCCNC(C)(C)COC(=O)c1ccccc1 [Meprylcaine hydrochloride]	0.98 ± 0.088	1.03 ± 0.14
CC(NCCc1ccc(O)cc1)C(O)c1ccc(O)cc1 (configuration not stated) [Ritodrine hydrochloride]	1.123 ± 0.0075	1.05 ± 0.02
C[N+](C)(CCOc1ccccc1)Cc1ccccc1.O=C([O-])c1cc2ccccc2cc1O [Bephenium hydroxynaphthoate]	1.02 ± 0.039	1.06 ± 0.033
NC1CCN(c2c(F)cc3c(=O)c(C(=O)O)cn(C4CC4)c3c2Cl)C1 (configuration not stated) [Clinafloxacin]	0.961 ± 0.075	0.894 ± 0.013
CCC1(C)CC(=O)NC1=O (configuration not stated) [Ethosuximide]	1.02 ± 0.074	0.974 ± 0.042
CCc1nn(CCCN2CCN(c3cccc(Cl)c3)CC2)c(=O)n1CCOc1ccccc1 [Nefazodone HCl]	1.02 ± 0.011	0.989 ± 0.025
OCCN1CCN(CC/C=C2/c3ccccc3Sc3ccc(Cl)cc32)CC1 [Zuclopenthixol hydrochloride]	0.754 ± 0.024	0.7712 ± 0.0039
Nc1nc(/C(=C/CC(=O)O)C(=O)N[C@@H]2C(=O)N3C(C(=O)O)=CCS[C@H]23)cs1 [Ceftibuten]	0.909 ± 0.12	0.923 ± 0.066
CN(C)CCOC(=O)C(c1ccccc1)C1(O)CCCC1 (configuration not stated) [Cyclopentolate hydrochloride]	0.974 ± 0.11	1.04 ± 0.083
Nc1ccc(/N=N/c2ccccc2)c(N)n1 [Phenazopyridine hydrochloride]	1.02 ± 0.039	1.04 ± 0.035
CCC(=O)O[C@]1(C(=O)SCF)[C@H](C)C[C@H]2[C@@H]3C[C@H](F)C4=CC(=O)C=C[C@]4(C)[C@@]3(F)[C@@H](O)C[C@@]21C [Fluticasone propionate]	0.932 ± 0.013	0.888 ± 0.026
O=C(O)c1ccccc1Nc1cccc(C(F)(F)F)c1 [Flufenamic acid]	0.975 ± 0.023	1.06 ± 0.11
CC[N+](C)(CC)CCC[n+]1c(-c2ccccc2)c2cc(N)ccc2c2ccc(N)cc21 [Propidium iodide]	0.88 ± 0.019	0.89 ± 0.037
O=C1O[C@H]([C@@H](O)CO)C(O)=C1O [Ascorbic acid]	0.955 ± 0.018	1.12 ± 0.044
Clc1ccc(C(c2ccccc2Cl)C(Cl)Cl)cc1 (configuration not stated) [Mitotane]	1.02 ± 0.035	1.01 ± 0.076
O=C1Nc2ccc(Cl)cc2[C@@](C#CC2CC2)(C(F)(F)F)O1 [Efavirenz]	1.07 ± 0.034	1.038 ± 0.0087
Nc1ccc(C(=O)O)c(O)c1 [4-aminosalicylic acid]	0.944 ± 0.086	1.03 ± 0.043
NCCCCCC(=O)O [Aminocaproic acid]	0.899 ± 0.037	0.892 ± 0.057
CN(C)C(=N)NC(=N)N [Metformin hydrochloride]	0.897 ± 0.085	0.985 ± 0.079
CC=CC(=O)N(CC)c1ccccc1C [Crotamiton]	0.872 ± 0.066	0.933 ± 0.037
CNCCc1ccccn1 [Betahistine mesylate]	1.04 ± 0.072	1.11 ± 0.078

SMILES	normalised cell viability (treatment time: 3 days)	normalised cell viability (treatment time: 6 days)
Nc1nc2c(ncn2COC(CO)CO)c(=O)[nH]1 [Ganciclovir]	1.05 ± 0.03	0.973 ± 0.02
CO[C@H]1/C=C/O[C@@]2(C)Oc3c(C)c(O)c4c(O)c(c5c(nc6cc(C)ccn65)c4c3C2=O)NC(=O)/C(C)=C\C=C\[C@H](C)[C@H](O)[C@@H](C)[C@@H](O)[C@@H](C)[C@H](OC(C)=O)[C@@H]1C [Rifaximin]	0.957 ± 0.037	0.951 ± 0.05
Clc1cccc(Cl)c1NC1=NCCN1 [Clonidine hydrochloride]	0.986 ± 0.038	0.997 ± 0.01
O=C1[C@H]2CCCC[C@H]2C(=O)N1CCCCN1CCN(c2nsc3ccccc23)CC1 [Perospirone]	1.02 ± 0.02	1.12 ± 0.1
CCN(CC)C(C)CN1c2ccccc2Sc2ccccc21 (configuration not stated) [Ethopropazine hydrochloride]	1.09 ± 0.093	0.996 ± 0.033
CCCNC(=O)NS(=O)(=O)c1ccc(Cl)cc1 [Chlorpropamide]	0.99 ± 0.023	1.08 ± 0.064
CC(=O)O[C@]1(C(C)=O)CC[C@H]2[C@@H]3C=C(Cl)C4=CC(=O)CC[C@]4(C)[C@H]3CC[C@@]21C [Chlormadinone acetate]	1.03 ± 0.015	1.017 ± 0.0072
Cc1cc(O)c(C(=O)N[C@@H](C(=O)N[C@@H]2C(=O)N3C(C(=O)O)=C(CSc4nnnn4C)CS[C@H]23)c2ccc(O)cc2)cn1 [Cefpiramide]	1.01 ± 0.08	1.04 ± 0.067
CN(CCCN1c2ccccc2CCc2ccccc21)CC(=O)c1ccc(Cl)cc1 [Lofepramine]	0.9785 ± 0.0069	1 ± 0.094
CN(C)CCOC(c1ccccc1)c1ccccc1.Cn1c(=O)c2[nH]c(Cl)nc2n(C)c1=O [Dimenhydrinate]	0.975 ± 0.025	1.06 ± 0.11
Clc1ccc2c(c1)CCc1cccnc1C2=C1CCNCC1 [Desloratadine]	0.601 ± 0.039	0.605 ± 0.088
O=C1NCC2(CCN(CCc3ccccc3)CC2)O1 [Fenspiride hydrochloride]	1.03 ± 0.051	1.06 ± 0.068
Cc1[nH]cnc1CN1CCc2c(c3ccccc3n2C)C1=O [Alosetron hydrochloride]	1.05 ± 0.038	1.02 ± 0.086
CCCOc1ccc2[nH]c(NC(=O)OC)nc2c1 [Oxibendazol]	0.18 ± 0.0021	0.194 ± 0.0035
O=C(c1ccc(F)cc1)C1CCN(CCn2c(=O)[nH]c3ccccc3c2=O)CC1 [Ketanserin tartrate hydrate]	0.94 ± 0.049	0.964 ± 0.051
CCN(CC)C(=O)c1ccc(O)c(OC)c1 [Ethamivan]	1.1 ± 0.014	1.05 ± 0.036
CN(C)CCC(c1ccc(Br)cc1)c1ccccn1 (configuration not stated) [Brompheniramine maleate]	0.922 ± 0.077	0.992 ± 0.056
c1ccc(-c2ccc(C(c3ccccc3)n3ccnc3)cc2)cc1 (configuration not stated) [Bifonazole]	0.951 ± 0.042	0.914 ± 0.066
Oc1c(Cl)cc(Cl)c2cccnc12 [Chloroxine]	0.6 ± 0.025	0.6 ± 0.034
O=C1CC[C@@H](C(=O)N2CSC[C@H]2C(=O)O)N1 [Pidotimod]	1.03 ± 0.021	1.04 ± 0.068
CC(=O)OC[C@H]1O[C@@H]([S-])[C@H](OC(C)=O)[C@@H](OC(C)=O)[C@@H]1OC(C)=O.CCP(CC)CC.[Au+] [Auranofin]	0.126 ± 0.0085	0.128 ± 0.012
CCC1(c2ccccc2)C(=O)NCNC1=O [Primidone]	0.947 ± 0.13	0.951 ± 0.1
Nc1ncnc2c1ncn2[C@@H]1O[C@H](CO)[C@@H](O)[C@@H]1O [Vidarabine]	0.776 ± 0.015	0.937 ± 0.13
